Some of the results follow. Repeats are few or missing, and single values can be far off.
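Note: cells treated in 1,536-well plates, then fixed and DAPI-stained, with nuclei counted from automated high-throughput microscope images.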

The experiment deals with SkMel28. Briefly: cell count relative to DMSO control; melanoma cells; higher = more viable cells. The following applies: library dose: standard library concentration; 72 h.
As to `CC[C@]1(O)C[C@H]2CN(CCc3c([nH]c4ccccc34)[C@@](C(=O)OC)(c3cc4c(cc3OC)N(C=O)[C@H]3[C@@](O)(C(=O)OC)[C@H](OC(C)=O)[C@]5(CC)C=CCN6CC[C@]43[C@@H]65)C2)C1` [vincristine] + CO[C@@H]1[C@H](N(C)C(=O)c2ccccc2)C[C@H]2O[C@]1(C)n1c3ccccc3c3c4c(c5c6ccccc6n2c5c31)C(=O)NC4 [Midostaurin] (first compound 0.0005 µM, partner dose 0.4 µM), the cell count was 59%. Turning to `N#CC[C@H](C1CCCC1)n1cc(-c2ncnc3[nH]ccc23)cn1` [ruxolitinib] + CN1CCN(c2ccc3nc(-c4c(N)c5c(F)cccc5[nH]c4=O)[nH]c3c2)CC1 [Dovitinib] (first compound 5 µM, partner dose 0.5 µM), the cell count is 60.6%. Turning to `N#CC[C@H](C1CCCC1)n1cc(-c2ncnc3[nH]ccc23)cn1` [ruxolitinib] + CN(C)S(=O)(=O)c1ccc2c(c1)/C(=C/c1cc3c([nH]1)CCCC3)C(=O)N2 [SU6656] (first compound 5 µM, partner dose 2 µM), the cell count is 56.3%. For the molecule `Cc1cc(Nc2cc(N3CCN(C)CC3)nc(Sc3ccc(NC(=O)C4CC4)cc3)n2)n[nH]1` [Tozasertib] + O=C(Nc1cccc(Cl)c1)Nc1ncc(CCNc2ncnc3ccsc23)s1 [SNS314] (first compound 0.03 µM, partner dose 0.004 µM), the cell count stood at 37.7%. With `CC[C@]1(O)C[C@H]2CN(CCc3c([nH]c4ccccc34)[C@@](C(=O)OC)(c3cc4c(cc3OC)N(C=O)[C@H]3[C@@](O)(C(=O)OC)[C@H](OC(C)=O)[C@]5(CC)C=CCN6CC[C@]43[C@@H]65)C2)C1` [vincristine] + COc1ccc(Cl)c(Nc2nc3ccccc3nc2NS(=O)(=O)c2cccc(NC(=O)C(C)(C)N)c2)c1 [XL147] (first compound 0.0005 µM, partner dose 4 µM), the cell count was determined as 53.5%.

The molecule `CC[C@]1(O)C[C@H]2CN(CCc3c([nH]c4ccccc34)[C@@](C(=O)OC)(c3cc4c(cc3OC)N(C=O)[C@H]3[C@@](O)(C(=O)OC)[C@H](OC(C)=O)[C@]5(CC)C=CCN6CC[C@]43[C@@H]65)C2)C1` [vincristine] + CO[C@H]1C[C@@H]2CC[C@@H](C)[C@@](O)(O2)C(=O)C(=O)N2CCCC[C@H]2C(=O)O[C@H]([C@H](C)C[C@@H]2CC[C@@H](OCCO)[C@H](OC)C2)CC(=O)[C@H](C)/C=C(\C)[C@@H](O)[C@@H](OC)C(=O)[C@H](C)C[C@H](C)/C=C/C=C/C=C/1C [everolimus] (first compound 0.0005 µM, partner dose 0.1 µM) registered a cell count of 41%. Take `N#CC[C@H](C1CCCC1)n1cc(-c2ncnc3[nH]ccc23)cn1` [ruxolitinib] + c1cc(-c2cnn3cc(-c4ccc(OCCN5CCCCC5)cc4)cnc23)ccn1 [Dorsomorphin] (first compound 5 µM, partner dose 2 µM): the cell count stood at 62.2%.

Turning to `Cc1cc(Nc2cc(N3CCN(C)CC3)nc(Sc3ccc(NC(=O)C4CC4)cc3)n2)n[nH]1` [Tozasertib] + C[C@@H]1CCN(C(=O)CC#N)C[C@@H]1N(C)c1ncnc2[nH]ccc12 [CP690550] (first compound 0.03 µM, partner dose 5 µM), the cell count came to 72.6%.

`N#CC[C@H](C1CCCC1)n1cc(-c2ncnc3[nH]ccc23)cn1` [ruxolitinib] + O=c1[nH]nc(Sc2ncc([N+](=O)[O-])s2)n1-c1ccc2c(c1)OCCO2 [BI78D3] (first compound 5 µM, partner dose 1 µM) showed a cell count of 77.5%. Molecule `N#CC[C@H](C1CCCC1)n1cc(-c2ncnc3[nH]ccc23)cn1` [ruxolitinib] + OCCn1cc(-c2cnc3nnn(Cc4ccc5ncccc5c4)c3n2)cn1 [PF04217903] (first compound 5 µM, partner dose 5 µM) came in with a cell count of 127%. In the case of `CC[C@]1(O)C[C@H]2CN(CCc3c([nH]c4ccccc34)[C@@](C(=O)OC)(c3cc4c(cc3OC)N(C=O)[C@H]3[C@@](O)(C(=O)OC)[C@H](OC(C)=O)[C@]5(CC)C=CCN6CC[C@]43[C@@H]65)C2)C1` [vincristine] + O=C(CCCCCCC(=O)Nc1ccccc1)NO [vorinostat] (first compound 0.0005 µM, partner dose 0.4 µM), the cell count is 40.4%. Regarding `N#CC[C@H](C1CCCC1)n1cc(-c2ncnc3[nH]ccc23)cn1` [ruxolitinib] + O=C1NC(=O)/C(=C/c2ccc(-c3ccc(F)cc3O)o2)S1 [AS252424] (first compound 5 µM, partner dose 5 µM), the cell count was 108%.

As for `CC[C@]1(O)C[C@H]2CN(CCc3c([nH]c4ccccc34)[C@@](C(=O)OC)(c3cc4c(cc3OC)N(C=O)[C@H]3[C@@](O)(C(=O)OC)[C@H](OC(C)=O)[C@]5(CC)C=CCN6CC[C@]43[C@@H]65)C2)C1` [vincristine] + O=C1NC(=O)/C(=C/c2ccc(-c3ccc(F)cc3O)o2)S1 [AS252424] (first compound 0.0005 µM, partner dose 5 µM), the cell count was 33.6%. To `N#CC[C@H](C1CCCC1)n1cc(-c2ncnc3[nH]ccc23)cn1` [ruxolitinib] + C[C@@H](Oc1cc(-c2cnn(C3CCNCC3)c2)cnc1N)c1c(Cl)ccc(F)c1Cl [Crizotinib] (first compound 5 µM, partner dose 1 µM) belongs 54.9%.

Turning to `Cc1cc(Nc2cc(N3CCN(C)CC3)nc(Sc3ccc(NC(=O)C4CC4)cc3)n2)n[nH]1` [Tozasertib] + NCC(=O)Nc1ccc(-n2nc(C(F)(F)F)cc2-c2ccc3c(ccc4ccccc43)c2)cc1 [OSU03012] (first compound 0.03 µM, partner dose 5 µM), the cell count stood at 30.4%. To `Cc1cc(Nc2cc(N3CCN(C)CC3)nc(Sc3ccc(NC(=O)C4CC4)cc3)n2)n[nH]1` [Tozasertib] + Cc1cc([N+](=O)[O-])ccc1NS(=O)(=O)c1cc(Cl)ccc1Cl [FH535] (first compound 0.03 µM, partner dose 5 µM) belongs 71.7%; to `N#CC[C@H](C1CCCC1)n1cc(-c2ncnc3[nH]ccc23)cn1` [ruxolitinib] + CCN(CC)CCCCNc1ncc2cc(-c3cc(OC)cc(OC)c3)c(NC(=O)NC(C)(C)C)nc2n1 [PD173074] (first compound 5 µM, partner dose 0.5 µM), 180%.

With `CC[C@]1(O)C[C@H]2CN(CCc3c([nH]c4ccccc34)[C@@](C(=O)OC)(c3cc4c(cc3OC)N(C=O)[C@H]3[C@@](O)(C(=O)OC)[C@H](OC(C)=O)[C@]5(CC)C=CCN6CC[C@]43[C@@H]65)C2)C1` [vincristine] + NCC(=O)Nc1ccc(-n2nc(C(F)(F)F)cc2-c2ccc3c(ccc4ccccc43)c2)cc1 [OSU03012] (first compound 0.0005 µM, partner dose 5 µM), the cell count was found to be 23.1%. Turning to `N#CC[C@H](C1CCCC1)n1cc(-c2ncnc3[nH]ccc23)cn1` [ruxolitinib] + Cc1nc(Nc2ncc(C(=O)Nc3c(C)cccc3Cl)s2)cc(N2CCN(CCO)CC2)n1 [dasatanib] (first compound 5 µM, partner dose 0.02 µM), the cell count came to 70%.

For the molecule `CC[C@]1(O)C[C@H]2CN(CCc3c([nH]c4ccccc34)[C@@](C(=O)OC)(c3cc4c(cc3OC)N(C=O)[C@H]3[C@@](O)(C(=O)OC)[C@H](OC(C)=O)[C@]5(CC)C=CCN6CC[C@]43[C@@H]65)C2)C1` [vincristine] + O=C(O)c1ccc(-c2c[nH]c3ncc(-c4ccccc4)cc23)cc1C1CCCC1 [GSK650394] (first compound 0.0005 µM, partner dose 0.8 µM), the cell count worked out at 54.1%.
